Measured values taken from patent US20100184636.

Biological target: endogenous raptor (UniProt Q8N122)
UniProt Q8N122, sequence (Q8N122 whole entry, looked up): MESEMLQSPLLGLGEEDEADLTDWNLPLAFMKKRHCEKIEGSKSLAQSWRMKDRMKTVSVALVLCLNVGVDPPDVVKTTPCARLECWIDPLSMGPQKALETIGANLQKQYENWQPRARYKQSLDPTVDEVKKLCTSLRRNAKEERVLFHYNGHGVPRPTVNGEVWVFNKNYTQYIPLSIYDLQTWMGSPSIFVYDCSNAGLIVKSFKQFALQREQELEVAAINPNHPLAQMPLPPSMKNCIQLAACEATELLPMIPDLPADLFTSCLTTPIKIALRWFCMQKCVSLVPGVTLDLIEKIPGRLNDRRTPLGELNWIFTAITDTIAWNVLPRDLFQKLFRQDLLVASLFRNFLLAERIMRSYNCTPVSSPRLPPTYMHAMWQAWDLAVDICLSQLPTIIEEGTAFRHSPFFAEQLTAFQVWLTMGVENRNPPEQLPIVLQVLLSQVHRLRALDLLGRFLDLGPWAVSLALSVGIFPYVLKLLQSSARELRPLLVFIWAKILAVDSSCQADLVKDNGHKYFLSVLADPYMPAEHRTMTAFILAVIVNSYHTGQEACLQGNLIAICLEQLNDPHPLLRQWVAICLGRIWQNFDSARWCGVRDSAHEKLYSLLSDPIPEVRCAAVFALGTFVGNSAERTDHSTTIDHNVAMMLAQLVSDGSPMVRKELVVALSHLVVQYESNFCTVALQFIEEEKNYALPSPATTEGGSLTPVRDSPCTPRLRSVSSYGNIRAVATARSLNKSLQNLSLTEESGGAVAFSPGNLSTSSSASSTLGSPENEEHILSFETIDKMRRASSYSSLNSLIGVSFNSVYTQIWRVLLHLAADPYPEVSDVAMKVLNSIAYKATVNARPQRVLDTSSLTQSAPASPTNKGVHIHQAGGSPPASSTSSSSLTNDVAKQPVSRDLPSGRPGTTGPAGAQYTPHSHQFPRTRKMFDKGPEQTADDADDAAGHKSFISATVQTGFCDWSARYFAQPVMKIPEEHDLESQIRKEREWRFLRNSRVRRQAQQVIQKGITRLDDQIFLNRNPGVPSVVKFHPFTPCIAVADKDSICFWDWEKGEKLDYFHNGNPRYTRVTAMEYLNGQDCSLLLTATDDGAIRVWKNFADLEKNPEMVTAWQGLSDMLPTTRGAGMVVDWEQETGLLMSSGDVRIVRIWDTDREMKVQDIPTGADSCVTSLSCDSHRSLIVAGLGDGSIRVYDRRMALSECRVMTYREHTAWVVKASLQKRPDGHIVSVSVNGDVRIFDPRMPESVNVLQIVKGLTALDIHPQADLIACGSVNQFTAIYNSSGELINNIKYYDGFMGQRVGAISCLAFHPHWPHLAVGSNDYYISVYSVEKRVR

Substance | S6K1 phosphorylation | exogenous PA-dependent phosphorylation of S6K1 (add-back) | mTOR kinase activity (in vitro kinase assay, phospho-4EBP1)
PLD2^E266R (no sequence given) | PLD2^F265A and PLD2^E266R did not trigger S6K1 phosphorylation versus PLD2^wt | the exogenous PA-dependent phosphorylation of S6K1 was rescued by PLD2^wt and PLD2^K758R, but not by PLD2^F265A and PLD2^E266R | PLD2^F265A and PLD2^E266R could not trigger mTOR kinase activity
PLD2^F265A (no sequence given) | PLD2^F265A and PLD2^E266R did not trigger S6K1 phosphorylation versus PLD2^wt | the exogenous PA-dependent phosphorylation of S6K1 was rescued by PLD2^wt and PLD2^K758R, but not by PLD2^F265A and PLD2^E266R | PLD2^F265A and PLD2^E266R could not trigger mTOR kinase activity
